# Results as given in PMC6919601, “Identification of Plasmodium dipeptidyl aminopeptidase allosteric inhibitors by high throughput screening” (PLoS ONE, 2019).
# About 230 (0.21%) of roughly 110,000 compounds showed an effect of 50% or more. Some of the results follow.
# Target: DPAP1 (Plasmodium falciparum, UniProt Q8IIJ9)
# Experiment: primary screen, percent inhibition; read by cleavage of a fluorogenic dipeptide substrate; higher = more effect of the substance
# Set-up: species or system P. falciparum D10 trophozoite lysates; single well
# 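Note: 30 min substrate incubation versus DMSO and 10 µM JCP410 controls.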
# Chain of DPAP1 (Q8IIJ9 whole entry, looked up): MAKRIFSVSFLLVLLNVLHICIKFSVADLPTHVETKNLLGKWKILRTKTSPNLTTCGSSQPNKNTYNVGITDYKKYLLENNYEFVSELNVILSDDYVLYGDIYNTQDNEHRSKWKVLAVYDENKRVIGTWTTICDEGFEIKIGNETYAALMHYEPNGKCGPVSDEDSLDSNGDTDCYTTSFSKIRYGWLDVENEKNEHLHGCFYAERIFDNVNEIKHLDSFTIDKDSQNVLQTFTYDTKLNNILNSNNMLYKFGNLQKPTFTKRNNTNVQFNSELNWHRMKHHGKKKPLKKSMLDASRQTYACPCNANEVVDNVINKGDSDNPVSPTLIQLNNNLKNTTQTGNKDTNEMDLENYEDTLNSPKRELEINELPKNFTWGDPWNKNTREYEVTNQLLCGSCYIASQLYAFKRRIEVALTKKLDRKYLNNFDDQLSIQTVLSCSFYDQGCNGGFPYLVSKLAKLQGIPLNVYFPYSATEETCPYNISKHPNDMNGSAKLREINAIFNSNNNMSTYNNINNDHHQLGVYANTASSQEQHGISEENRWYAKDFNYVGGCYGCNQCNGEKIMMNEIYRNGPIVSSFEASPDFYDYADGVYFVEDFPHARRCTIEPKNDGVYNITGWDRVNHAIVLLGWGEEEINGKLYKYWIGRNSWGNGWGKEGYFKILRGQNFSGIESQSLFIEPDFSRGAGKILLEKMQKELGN
row,SMILES,% Inhibition @ 10 uM [%]
1,COc1cc(OC)cc(C(=O)N(CCCN(C)C)c2nc3c(C)c(C)ccc3s2)c1,0.49
2,COc1ccc(C(=O)NCC23C=CC(O2)C2C(=O)N(Cc4ccccc4)C(=O)C23)cc1 (stereo not drawn),1.44
3,CC(C)C[C@@H](C(=O)NCC#N)c1cccc(-c2ccc(C3(C)CCN(C)CC3)cc2)c1,1.7
4,O=C(CN1C(=O)c2cccc3cccc1c23)N1CCN(c2cccc(Cl)c2)CC1,-2.74
5,CCN(CC)CCNC(=O)CSc1c2c(nc3cc(Cl)ccc13)CCCC2,-1.7
6,CC(=O)Nc1ccc(C2C(C#N)=C(N)OC3=C2C(=O)CC(C)C3)cc1 (stereo not drawn),-4.94
7,Cc1cccc(C(=O)Nc2c(-c3cccs3)nc3cc(C)ccn23)c1,6.03
8,Cc1[nH]c2ccc(C(=O)N3CCN(Cc4ccccc4)CC3)cc2c1C,5.08
9,CCOC(=O)N1CCN(C(=O)C2CCC(C/N=c3/c(N4CCCCC4)c(O)c3=O)CC2)CC1 (stereo not drawn),1.22
10,Cc1ccsc1/C=C1\N=C(c2ccccc2Cl)OC1=O,4.54
11,Cc1nc2nc(SCC(=O)NCc3ccco3)nn2c(C)c1Cc1c(F)cccc1Cl,9.37
12,CCOC(=O)c1c2n(c3cc(Cl)c([N+](=O)[O-])cc3c1=O)CCC2,5.55
13,O=C(O)CSc1cccnc1Sc1ccc(Cl)cc1,-1.06
14,O=C(c1sc2cc(F)ccc2c1Cl)N1CCCCC1,1.84
15,O=C(c1ccco1)N(Cc1ccc(Cl)cc1)C1CCS(=O)(=O)C1 (stereo not drawn),-1.94
16,CCn1c2ccccc2c2cc(C3NC(=O)NC(C)=C3C(=O)OCCSC)ccc21 (stereo not drawn),-0.703
17,O=C(CSc1nnc(-c2cccnc2)o1)c1c[nH]c2ccccc12,-3.21
18,Clc1ccc(N2N=C(/C=C/c3ccccc3)CC2c2ccccc2)cc1Cl (stereo not drawn),0.716
19,CC1=C(C(=O)Nc2ccc(Br)cc2)C(c2ccccc2)NC(=O)N1 (stereo not drawn),-2.18
20,O=C1CCC(=O)N1CC(=O)N1CCCc2ccccc21,7.64
21,COCCCNC(=O)COc1cc(C)ccc1C,6.86
22,CCc1ccc(NC(=O)Cn2cnc3ccccc3c2=O)cc1,-1.22
23,CCCN(CCC)CCCNC(=O)CCN1N=C(c2ccc(OC)cc2)CCC1=O,-0.971
24,CCOC(=O)c1c(C)n(-c2ccc(C)cc2)c2ccc(OCC(O)Cn3nc(C)cc3C)cc12 (stereo not drawn),-0.278
25,CCNc1nc2nc(O)c3c(c2s1)OC(N)=C(C#N)C3c1ccc(C)cc1 (stereo not drawn),-2.83

row,SMILES,% Inhibition @ 10 uM [%]
1,COc1ccc(C)cc1N(CC(=O)NC1CC2CCC1C2)S(C)(=O)=O (stereo not drawn),1.21
2,CCc1ccc(OCCSc2nc(-c3ccccc3)nc3cc(=O)[nH]n23)cc1,0.586
3,CN(CCNC(=O)Cn1ncc2c3ccccc3n(C)c2c1=O)C1CCCCC1,6.46
4,C#CCOc1ccc(Br)cc1C1C(C#N)=C(N)Oc2cc(O)ccc21 (stereo not drawn),2.25
5,CNC(=O)c1cc2oc3ccccc3c2n1C,1.22
6,CCN(CC)CCn1c(NCc2ccc(C)cc2)nc2ccccc21,2.31
7,O=c1/c(=C/c2cccc3ccccc23)sc2ncnn12,1.91
8,CC(=O)Nc1ccc(N2C(=O)CC(NC3CCN(Cc4ccccc4)CC3)C2=O)cc1 (stereo not drawn),-3.85
9,COc1ccc(-c2noc(CN(C(=O)C3CCCCC3)C(C)C)n2)cc1,-0.0593
10,CC(C)(C)/C(O)=C/C=N/c1ccccc1Oc1ccccc1,-3.16
11,Cc1cccn2c(=O)c(/C=C(\C#N)C(=O)NCc3ccco3)c(Oc3ccc(C(C)(C)C)cc3)nc12,2
12,O=C(CSc1nnnn1-c1ccccc1F)NCc1ccco1,-0.403
13,CNC(=O)c1oc2c(c1C)-c1nn(Cc3ccc(Cl)cc3)cc1CC2,4.33
14,CN(C)c1nc(N)nc(CSc2nnc(CCc3ccccc3O)n2-c2ccccc2)n1,-0.403
15,COc1ccc(NC(=O)CN2C(=O)c3ccccc3S2(=O)=O)cc1,-2.74
16,O=C(O)c1cnc2c(F)c(F)c(F)c(NCc3ccccc3)c2c1O,-1.85
17,O=C1OC(c2cc(F)c(F)cc2Cl)=N/C1=C\c1cccs1,6.11
18,CCOc1cccc(NC(=O)C2CC(=O)N(c3cccc(Cl)c3C)C2)c1 (stereo not drawn),3.17
19,CC(c1ccccc1)n1cncc1C(=O)N1CCCC1=O (stereo not drawn),4.1
20,O=C(NC1(C(F)(F)F)NC(=O)N(C2CCCCC2)C1=O)c1ccco1 (stereo not drawn),0.221
21,COc1ccc(NC(=O)C2=C(C)Nc3ncnn3C2c2ccc(Cl)cc2Cl)cc1 (stereo not drawn),-1.26
22,O=c1c(N2CCC(Cc3ccccc3)CC2)csc2ccccc12,1.81
23,COc1ccc(/C=C\c2onc(C)c2S(=O)(=O)N2CCC(C(=O)NCC3CCCO3)CC2)cc1 (stereo not drawn),-6.89
24,CN(CCc1ccccn1)C1CCc2ccccc2C1 (stereo not drawn),-3.27
25,NC(=O)c1ccccc1NC(=O)CCC1CCCC1,-3.18

row,SMILES,% Inhibition @ 10 uM [%]
1,CCC[C@@H](/C=C/S(=O)(=O)c1ccccc1)NC(=O)[C@H](Cc1c(F)cccc1F)NC(=O)c1ccc(-c2cc(C(=O)OC)ccc2Cl)cc1,-0.207
2,CNC(=O)c1ccc2nc(-c3ccc(F)cc3)c(-c3ccc(F)cc3)nc2c1,7.61
3,Cc1cccc(-c2oc(C)c(C)[n+]2[O-])c1,-4
4,Cc1ccc(S(=O)(=O)Nc2ccnc(C(=O)NCc3ccc(F)cc3)c2)cc1,1.25
5,O=c1oc2cc3oc4c(c3cc2c2c1CCC2)CCCC4,2.54
6,CN(C)c1ccc(CN2CCN(Cc3ccccc3)CC2)cc1,-5.41
7,Cc1cc(C)c(Cc2c(C)nc3c(C(=O)NCc4ccccc4)cnn3c2C)c(C)c1,-0.406
8,CCCc1cc(O)n2nc(Cc3ccccc3)c(-c3ccc(Cl)cc3)c2n1,-5.62
9,Cc1nc(SCc2ccc(Cl)cc2)nc2ccccc12,2.3
10,COC(=O)NC1C=CS(=O)(=O)C1 (stereo not drawn),-4.51
11,O=C(O)c1cnc2c(ccc3ccccc32)c1O,3.76
12,COC(=O)CSC1=C(C#N)C(c2ccc(Cl)cc2Cl)CC(=O)N1 (stereo not drawn),1.13
13,Brc1ccccc1-c1nnc2sc(-c3cnccn3)nn12,-2.21
14,CCOC(=O)C1=C(Cn2ccc(C(F)(F)F)n2)NC(=O)NC1c1cc(C)ccc1C (stereo not drawn),-5.4
15,CNC(=O)N(C)C(=O)NC1CCCCCCCCCCC1,-4.43
16,C=CCOc1ccc(/C=c2/sc3nc(=O)c(Cc4ccc(F)cc4)nn3c2=O)cc1OC,-2.29
17,COc1cc(CNC2CC3CCC2C3)cc(OC)c1 (stereo not drawn),-3.8
18,COc1ccc(C2Nc3ccccc3N=C3CC(c4cccs4)CC(O)=C32)c(OC)c1OC (stereo not drawn),0.777
19,Cc1cc(C)c(S(=O)(=O)NCCc2nc3ccccc3[nH]2)c(C)c1,2.99
20,CCOC(=O)c1c(CN(CC)CC)n(C)c2cc(Br)c(O)cc12,-4.61
21,O=c1c2c3c(sc2nc(SCc2ccccc2)n1-c1ccccc1)CCC3,-2.2
22,Cc1ccc(C2=N/C(=C\c3ccc(Br)o3)C(=O)O2)cc1,-2.27
23,Cn1cc(C(=O)NCc2ccc(F)cc2)cn1,-6.42
24,CCc1ccc(C2=NN(CCC(=O)NCc3ccc(OC)cc3)C(=O)CC2)cc1,-6.4
25,OCCNc1nc(O)c2c(ncn2Cc2ccccc2)n1,-1.74

row,SMILES,% Inhibition @ 10 uM [%]
1,O=C(Nc1ccccc1)Nc1ccc(F)c(Cl)c1,-2.18
2,Cc1ccccc1-c1nc(O)c2c(n1)Oc1ccc(F)cc1C2,0.444
3,COc1ccc(C(CC(=O)NCc2ccccc2OC)N2Cc3ccccc3C2=O)cc1 (stereo not drawn),-8.48
4,O=S(=O)(c1ccccc1)n1nc(-c2cccnc2)nc1NCc1ccco1,-6.64
5,O=S(=O)(Nc1ccc(Cl)cc1Cl)c1cc(Cl)ccc1Cl,3.85
6,O=C(O)CCNC(=O)/C(=C/c1ccc2c(c1)OCO2)NC(=O)c1cccc(Br)c1,0.851
7,CCOc1ccc(S(=O)(=O)N2CN3CCN(C3)C2)cc1,-1.11
8,O=C(Cn1cnc2c(nnn2-c2ccc(F)cc2)c1=O)N1CCCCCC1,-2.16
9,Cc1ccc(CNC(=O)c2cc(C3CC3)[nH]n2)o1,-4.46
10,CC1CCC(C(C)C)C(OCC(O)CN2CCN(C)CC2)C1 (stereo not drawn),-6.09
11,Cc1cccc(-c2nc(C#N)c(N3CCN(c4ccccc4)CC3)o2)c1,0.673
12,Cc1cccc(N2C(=O)C3CCC(C)CC3C2=O)c1 (stereo not drawn),-6.07
13,COc1ccc(Br)cc1/C=N\n1c(C)nnc1C,-2.13
14,CCOCCCn1c(=N)c(C(=O)NCc2cccnc2)cc2c(=O)n3cccc(C)c3nc21,-3.27
15,O=C1C(Cl)=C(N2CCCCC2)C(=O)c2ccccc21,5.98
16,O=C(NCCc1ccccc1)C1CCCN(S(=O)(=O)c2cccc3cccnc23)C1 (stereo not drawn),-4.69
17,CCCn1cc(CC(C(=O)O)C(=O)O)c2ccccc21,2.62
18,Cc1c(C(=O)NCc2ccc3c(c2)OCO3)cnn1C,-4.39
19,COc1ccc(N2C(=O)c3ccccc3NC2c2ccc(O)c(OC)c2)cc1 (stereo not drawn),0.931
20,COc1ccc2cc(C(C)c3nc4ccccc4[nH]3)ccc2c1 (stereo not drawn),-0.551
21,CNC(=O)/C(=C\c1ccc(OC)cc1)NC(=O)c1cccc(Br)c1,2.38
22,Cc1ccc(-c2coc3cc4oc(=O)c(CCC(=O)O)c(C)c4cc23)cc1,0.558
23,Cc1cc(C)cc(NS(=O)(=O)c2ccc(F)cc2)c1,-3.67
24,O=C(COc1ccccc1)Nc1ccc(CN2CCOCC2)cc1,-4.97
